About 540 (0.36%) of roughly 150,000 compounds showed an effect of 50% or more. This is one part of the list.
tested on: Plasmodium falciparum; assay: Primary screen in NF54 nanoGlo assay, in single point, at 2uM, 72h; a lower Z score goes with more inhibition; assay type: functional, Erythrocyte; conditions: timepoint 72 hour

SMILES | % Inhibition | Z score
COc1cccc(CN(Cc2cccc(F)c2)CC2(C)COC2)n1 | -7% | 0.96
CS(=O)(=O)NCc1cccc(C(F)(F)F)c1 | 18% | -2.3
C[C@H](NS(=O)(=O)CC1CCCCC1)c1cc2ccccc2o1 | -9% | 0.94
Cc1nc2ccc(N(C)Cc3csc(-c4ncccn4)n3)cc2s1 | -9% | 1.17
CNC(=O)[C@H](CC(C)C)NCC(C)c1ccc(OC)cc1 (stereo partly drawn) | -4% | 0.77
CC(C)[C@H](NC1CCC2(CC1)OCCO2)c1nc(C2CC2)no1 | 8% | -0.83
N#Cc1ccc(CNc2[nH]ncc2C#N)cc1 | -13% | 2.09
CNCC(=O)N1CCOC(c2ccc(Br)cc2)C1C (stereo not drawn) | 4% | -0.45
CCCCN(CC)C(=O)c1cccc(NS(=O)(=O)CCC)c1 | -4% | 0.56
CC(C)CCN(CCC(C)C)C(=O)CN(C)C1CCCC1S(C)(=O)=O (stereo not drawn) | -5% | 0.82
O=S(=O)(c1c(Cl)ccc2nsnc12)N1CCN(Cc2cccs2)CC1 | -11% | 1.16
OCC1CCN([C@H]2CCCN(Cc3ccc(-n4cccn4)cc3)C2)CC1 | -1% | 0.2
NC(=O)[C@H]1CC[C@H](CN2CC(c3ccccc3)(c3ccccc3)CCC2=O)CC1 | -6% | 0.77
O=C(c1ccccc1F)N1CCS(=O)(=O)CC1 | -4% | 0.59
Cc1ccc(-c2noc(-c3cccnc3NCc3ccccn3)n2)cc1 | -6% | 0.87
O=C(Cn1nnc2ccccc21)N1CC(N2C(=O)CNC2=O)C1 | -2% | 0.38
CCC(Cc1ccc(F)cc1)NC(=O)N[C@H]1CCO[C@@H]1c1cn(C)nc1C (stereo partly drawn) | -13% | 1.37
COc1cccc(CN2C[C@@H]3C[C@H]2C(=O)NC[C@@H]2CCC[C@@H](CCOc4ccccc4C(=O)N3)O2)c1 | 0% | 0
CCc1[nH]c2c(CNC(=O)[C@H](Cc3c[nH]cn3)NC(C)=O)cc(F)cc2c1C | -7% | 1.31
CC(C)Cc1noc(CN(C)C(=O)CCc2nncn2C)n1 | -6% | 0.76
Cc1ccccc1-c1cc(NC(=O)Nc2c(C)n[nH]c2C)n(C)n1 | -16% | 1.6

SMILES | % Inhibition | Z score
Cc1ccc(F)c(NC(=O)N2CCC[C@H](c3cn[nH]c3)C2)c1 | -10% | 1.88
Clc1ccc(-c2nnc(-c3cccnc3NCCC3=CCCCC3)o2)cc1 | 1% | -0.08
Cc1csc(C2=C(O)CN(C[C@H]3CCCO3)C2=N)n1 | -6% | 0.6
O=S(=O)(c1ccccc1)N(Cc1cccs1)C1CCOCC1 | -4% | 0.69
C[C@]1(CNC(=O)Nc2cccc(CN3CCOCC3)n2)CCCCO1 | -6% | 1.13
COc1ccc(-c2n[nH]c(CC(C)C)c2NC(=O)Cc2ccc(F)cc2)cc1OC | 2% | -0.27
CN(C)c1ccccc1-c1ccc(C(=O)O)cc1CO | -7% | 1.12
Cc1cccc(NC(=O)c2cccc(N3C[C@@H](C(=O)Nc4ccc(F)cc4)CC3=O)c2)c1 | -29% | 2.77
Cc1cnc(C(=O)NCC(=O)c2ccccc2Cl)cn1 | 9% | -0.94
CCC(CC)[C@H](CNC(=O)Nc1ccc(N2CCOCC2)cc1C)N1CCCC1 | -5% | 0.82
O=C(CC1CCCCC1)N[C@H](c1ccccc1)c1nnc(N2CCCCC2)o1 | -10% | 1.19
CC(=O)c1cccc(N[C@@H](C)C(=O)N2CCCCCC2)c1 | -13% | 2.11
O=C(CCNC(=O)c1ccncc1)NCCCN(C1CC1)S(=O)(=O)c1cccc(F)c1 | -5% | 0.74
CCn1ccnc1CNC(=O)NCc1cc(Br)cnc1OC | 10% | -1.68
Cc1nn(C)c(C)c1NC(=O)CN1C(=O)N[C@H](c2cc(Br)ccc2F)C1=O | -12% | 1.65
Cc1cccc(CC2(NC(=O)[C@H](C)N(C)C)CC2)c1 | 1% | -0.22
O=S1(=O)C[C@H](O)[C@@H](n2ccnc2-c2nc3c(s2)CCCC3)C1 | -16% | 1.5
COCc1csc(NC(=O)c2[nH]cnc2C(=O)c2ccccc2)n1 | -1% | 0.11
CCC(=O)Nc1ccc(-c2cccc(-c3cc[nH]n3)c2)c(C)n1 | -9% | 1.07
O=C(c1ccsc1)N1CCC[C@@](F)(C(=O)N2CCOCC2)C1 | -16% | 1.39
CN1C(=O)[C@]2(CCN(C(=O)c3cccc(Cl)c3)C2)c2ccccc21 | -17% | 2.18

SMILES | % Inhibition | Z score
Cc1nc(N)cc(NCCCCN2CCCC2)n1 | 8% | -1.56
CC(=O)Nc1c2n(c3ccc(F)cc13)C[C@@](C)(C(=O)NC1CCCCCC1)N(CCN(C)C)C2=O | -21% | 2.01
CN(CC(=O)N1CCCCC1)C1CCCCC1 | -12% | 1.32
CCn1cc(C#N)c(=O)c2cc(F)c(N3CCN(Cc4ccccc4)CC3)cc21 | 68% | -7.22
Cc1[nH]c(C(=O)O)c(C)c1C(=O)N(C)CCCOc1ccc(Cl)cc1 | -1% | 0.25
CCc1cnc(NCc2c(C)nn(CC)c2C)nc1 | -8% | 0.8
O=C(c1cccnc1)N1C[C@H]2CC[C@@H](C1)N(CCOc1ccc(F)cc1)C2 | -6% | 1.26
O=C(CN1CCC(c2ccnn2CCO)CC1)N(Cc1ccccc1)C1CC1 | 36% | -4.64
Cc1ccc(-c2ccc(S(=O)(=O)N3CCCCCC3)cc2)cc1 | 1% | -0.16
COc1ccccc1/C=C/CN1CCC[C@H](CNC(=O)c2cccnc2)C1 | -12% | 1.11
COCCCN1C(=O)C[C@](CC(=O)N2CCN(c3ccc(F)cc3)CC2)(c2ccccc2OC)C1=O | -5% | 0.73
CCOc1ccc(NC(=O)N2CC(=O)N(CC(=O)N3CCCCCC3)c3ccccc32)cc1 | -2% | 0.26
CC1CCCCCN1C(=O)C1C2CCCCC21 (stereo not drawn) | -6% | 0.89
O=C(NCc1cccnc1)c1nc(-c2nc(C3CC3)no2)cs1 | 6% | -0.85
Cc1ccc(C(=O)N2[C@H](C(=O)NCc3ccco3)COC23CCN(C(=O)c2ccccc2Cl)CC3)cc1 | -12% | 1.52
COCCCCN1CCN(c2nnc(C(C)C)s2)CC1 | -5% | 0.87
Cc1nn(CCCNC(=O)CCn2nc(C(F)(F)F)c(Cl)c2C)cc1Br | 19% | -2.32
CC(C)c1nnsc1CN1C[C@H](C2CC2)[C@@H](N)C1 | -14% | 1.23
CC(C)c1ccccc1OCCNC(=O)NCc1nccs1 | -2% | 0.21
COC(=O)C(N[C@@H](C)C(N)=O)c1cccc(Cl)c1Cl (stereo partly drawn) | -3% | 0.51
COCCCN(C(=O)c1ccc(-c2cccc(Cl)c2)nc1N1C[C@@H](C)O[C@@H](C)C1)C1CCN(C)CC1 | -8% | 1.16

SMILES | % Inhibition | Z score
CC[C@H]1CC[C@H](C(=O)NC[C@](C)(O)C(=O)OC)CC1 | -5% | 0.83
Cc1ccc(=O)n(CC(=O)N(Cc2ccccn2)Cc2ccc(Br)cc2F)n1 | 1% | -0.21
CC[C@@](C)(CNC(=O)Cc1sc(C)nc1-c1ccc(C)cc1)N1CCOCC1 | 17% | -2.29
Cc1cccc(-c2ccc(C(=O)NCc3ccnc(C)n3)c(=O)[nH]2)c1 | -9% | 1.38
CCN1CCN(C2(C(=O)N(C)C(C3CC3)C3CC3)Cc3ccccc3C2)CC1 | -11% | 1.48
N#CCCN(CC(F)(F)F)C(=O)c1ccc2c(c1)N=S=N2 | 9% | -1.17
COc1ccc(CC(=O)N2CCC(OC)(c3nccn3C)CC2)cc1 | -1% | 0.14
COc1cccc(CNCCCn2ccnc2)c1OCc1ccc(F)cc1 | 36% | -5.22
COc1ccc(S(=O)(=O)NC2CCN(C)CC2)cc1C(=O)N1CCCCC1 | -11% | 1.84
Cn1cc(Cl)c([C@@H]2CCCCCN2C(=O)c2ccccc2F)n1 | 4% | -0.36
Cc1nc2ccccc2c(N2CCC(n3cncn3)CC2)c1C | -21% | 3.93
COc1ccc(-n2nc3nc(NCCN4CCCCC4)nc(-c4cccc(Cl)c4)c3c2N)cc1 | -10% | 1.41
Cc1oc2ncn(C)c(=O)c2c1C(=O)N1CCC(Cc2ccccc2)CC1 | 1% | -0.14
CCNC(=O)c1ccc(N2CCN(c3ccc(OC)cn3)CC2)nn1 | 9% | -1.05
CCCc1cc(C(=O)Nc2c(C)n(C)n(-c3ccccc3)c2=O)no1 | 5% | -0.77
Cc1cc2c(c(-c3ccc(-c4ccon4)s3)c1)O[C@@H](CN)C2 | -25% | 2.69
O=S1(=O)CCN(CCc2c(F)ccc(F)c2F)CC1 | -1% | 0.12
COc1ccc(C(=O)NCCc2nc3ccccc3c(=O)[nH]2)cc1OC | 1% | -0.11
CC(C)=CCN(CCC#N)Cc1ccccn1 | 0% | 0.06
Cc1cnn(CCNC(=O)Cc2csc(-c3ncccn3)n2)c1 | 1% | -0.21
Fc1ccc(CN2CC[C@H](n3cc(COCc4ccccc4)nn3)C2)c(F)c1 | -6% | 0.87

— ChEMBL document CHEMBL4888484, “Replenishing the malaria drug discovery pipeline: Screening and hit evaluation of the MMV Hit Generation Library 1 (HGL1) against asexual blood stage Plasmodium falciparum ,using a nano luciferase reporter read-out” (2022)
